The structures appear in SMILES notation. Among all 110,000 compounds or so, about 230 (0.21%) showed an effect of 50% or more. This is one part of the list.
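Note: 30 min substrate incubation versus DMSO and 10 µM JCP410 controls.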

In this assay the target is DPAP1 (Plasmodium falciparum, UniProt Q8IIJ9). The assay can be described thus: primary screen, percent inhibition; read by cleavage of a fluorogenic dipeptide substrate; higher = more effect of the substance. Set-up: species or system P. falciparum D10 trophozoite lysates; single well.
Chain of DPAP1 (Q8IIJ9 whole entry, looked up): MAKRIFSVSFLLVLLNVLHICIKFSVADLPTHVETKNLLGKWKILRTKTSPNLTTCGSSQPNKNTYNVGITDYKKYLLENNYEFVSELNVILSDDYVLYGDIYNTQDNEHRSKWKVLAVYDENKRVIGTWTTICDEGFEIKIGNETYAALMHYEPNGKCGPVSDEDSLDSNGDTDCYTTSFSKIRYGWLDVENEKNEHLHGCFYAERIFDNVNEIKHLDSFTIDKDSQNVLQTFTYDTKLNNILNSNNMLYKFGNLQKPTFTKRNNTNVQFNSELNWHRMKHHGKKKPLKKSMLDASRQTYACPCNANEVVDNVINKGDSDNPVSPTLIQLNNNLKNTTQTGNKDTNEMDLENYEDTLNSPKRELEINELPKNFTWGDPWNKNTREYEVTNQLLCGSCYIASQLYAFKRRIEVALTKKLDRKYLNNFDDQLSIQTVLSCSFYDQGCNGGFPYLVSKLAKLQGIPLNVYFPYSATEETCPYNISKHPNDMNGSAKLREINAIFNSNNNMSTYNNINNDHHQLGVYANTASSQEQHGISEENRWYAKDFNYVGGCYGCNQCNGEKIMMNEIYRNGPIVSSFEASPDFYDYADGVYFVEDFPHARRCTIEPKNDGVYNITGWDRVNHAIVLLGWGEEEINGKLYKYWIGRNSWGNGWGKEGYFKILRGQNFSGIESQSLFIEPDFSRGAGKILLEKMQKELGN
On to `CCOC(=O)c1oc2ccc(S(=O)(=O)Nc3c(C)nc4ncnn4c3O)cc2c1C`, for which the “% Inhibition @ 10 uM” value is reported as -1.68%. Take `CCc1ccc(-c2nc(SCC(=O)NCC3CCCO3)c(-c3ccc(OC)c(OC)c3)[nH]2)cc1` (centres unmarked): the “% Inhibition @ 10 uM” value is reported as 1.85%. Take `CCN(CC)C(=O)C1CCCN(Cc2ccc(OC)c(Br)c2)C1` (centres unmarked): the “% Inhibition @ 10 uM” value was -1.98%. Regarding `N#CCNC(=O)[C@H](Cc1cc(Cl)c(O)c(Cl)c1)NC(=O)c1ccc(F)cc1F`, the “% Inhibition @ 10 uM” value is given as -6.46%. With `O=C(Nc1cnc2ccccc2c1)c1ccc2ccccc2c1`, the “% Inhibition @ 10 uM” value was 0.238%. Next, `N#Cc1c[nH]nc1NCc1ccc2c(c1)OCO2`: -2.05%; `COc1ccc(C2CC(C(F)(F)F)n3nc(C(=O)NC(C)C)c(Cl)c3N2)cc1` (centres unmarked): 2.44%. Next, `Cc1ccccc1N1C(=O)CC(c2cn(C)c3ccccc23)C1=O` (centres unmarked): 1.92%; `CN1C(=O)/C(=C/c2ccc(Cl)cc2Cl)N=C1SCC(=O)NCc1ccccc1`: 1.03%. The result for `CCn1c(C)[n+](CC)c2cc(C(=O)N(C)C)ccc21` reads -0.615%. For `CSc1nc2c(c(-c3ccccc3)c1C#N)CCC2`, the “% Inhibition @ 10 uM” value is 5.18%.

For the compound `CCN(CC)CCOC(=O)c1c(C)nc2n(C)c3ccccc3n12`, the “% Inhibition @ 10 uM” value was 3.74%. Take `CCN1CCC2(CC1)OC(=O)C(C)=C2C(=O)NCCCOC(C)C`: the “% Inhibition @ 10 uM” value is listed as 4.11%.

As for `Cc1ccc(Cn2c(-c3nonc3N)nc3ccccc32)cc1`, the “% Inhibition @ 10 uM” value is given as 4.1%. `O=C(C1CCN(S(=O)(=O)c2c[nH]cn2)CC1)N(CCc1ccccc1)Cc1ccccc1`: the “% Inhibition @ 10 uM” value stood at 2.9%. On to `COC(=O)c1cc(-c2cccc(OC)c2)[nH]n1`, for which the “% Inhibition @ 10 uM” value is 3.87%.

For `O=C(CCNS(=O)(=O)c1ccc(Cl)cc1)N1CCN(Cc2ccccc2)CC1`, the “% Inhibition @ 10 uM” value is listed as 2.05%. `CCCN1CCN(C(=O)c2nn(C)c3c2CSc2ccccc2-3)CC1`: the “% Inhibition @ 10 uM” value was found to be 1.68%.

Consider `N#CC1=C(N)Oc2ccc3ccccc3c2C1c1cccnc1` (centres unmarked), for which the “% Inhibition @ 10 uM” value is on record as -7.52%. Regarding `CC(C)c1ccc(CN2CCN(CCO)CC2)cc1`, the “% Inhibition @ 10 uM” value came to 2.22%. As to `COc1ccc(S(=O)(=O)N(C)CC(=O)N2CCN(c3ccc(F)cc3)CC2)cc1`, the “% Inhibition @ 10 uM” value is 15.9%. `CC(C)CN(CCNCc1c(C(=O)O)n(C)c2ccccc12)CC(C)C`: the “% Inhibition @ 10 uM” value is given as 1.93%. The result for `CCN(CC)CCn1c(NC(=O)C23CC4CC(CC(C4)C2)C3)nc2ccccc21` reads 3.01%; that for `O=C(Cc1cccc2ccccc12)NCCn1ccc2ccccc21`, -3.51%; that for `O=C(O)[C@H]1CCCC[C@H]1C(=O)Nc1ccc(Nc2ccccc2)cc1`, -8.28%. The result for `O=C(O)/C=C\C(=O)Nc1ccccc1C#Cc1ccc(Br)cc1` reads 2.26%; that for `COc1ccc(-c2cc3ccc(OC)cc3s2)cc1`, -1.44%.

Turning to `COc1ccc(-c2csc3ncn(Cc4ccccc4C)c(=O)c23)cc1OC`, the “% Inhibition @ 10 uM” value was found to be 5.09%. Take `CCCCc1ccc(-c2c(C#N)c(N)nc3c2CCCC3)s1`: the “% Inhibition @ 10 uM” value was -4.04%.

For the compound `c1ccc(CNc2nc3ccccc3c3ccccc23)cc1`, the “% Inhibition @ 10 uM” value is recorded as 1.04%.

With `Cc1ccc(OCC(=O)NC2CCCC2)cc1C`, the “% Inhibition @ 10 uM” value is reported as -5.54%. The result for `CCOC(=O)c1c(S(=O)(=O)NCc2cc(OC)ccc2OC)c(C)n(C)c1C` reads -4.9%; that for `O=C(O)C1CC=CCC1C(=O)Nc1ccc(N2CCN(c3ccc(F)cc3)CC2)cc1` (centres unmarked), -0.00273%.

As to `N#Cc1ccc(NC(=O)CSc2nc3ccccc3[nH]2)cc1`, the “% Inhibition @ 10 uM” value is recorded as -8.95%. Regarding `COCc1cc(C)nc2c1C(=O)N1C(=O)c3ccccc3C1N2Cc1ccccc1` (centres unmarked), the “% Inhibition @ 10 uM” value is reported as -5.72%. The result for `COc1ccc(OC)c(C2C3=C(O)CCCC3=NC(C)=C2C(=O)Nc2cccc(C(F)(F)F)c2)c1` (centres unmarked) reads -5.34%; that for `Nc1c(C(=O)NCc2ccco2)nnn1-c1ccccc1`, 6.65%. For the compound `Cc1cc(C)nc(O)c1`, the “% Inhibition @ 10 uM” value was -1.62%.

As for `O=C(NCc1ccccc1Cl)C1CCN(S(=O)(=O)c2cccc3nonc23)CC1`, the “% Inhibition @ 10 uM” value is on record as -3.21%. Next, `CC(C)NC(=O)Cc1c(O)nc2ccccc2c1O`: 1.27%. On to `O=C(CSc1ccc(Br)cc1)Nc1ccc(Cl)cc1`, for which the “% Inhibition @ 10 uM” value is -2.64%. Next, `CCN1CCCC1CNC(=O)C1CCCN(c2nn3c(=O)cc(C)nc3s2)C1` (centres unmarked): 3%; `COc1cccc(-c2nc(CSCC(=O)NC(C)C)c(C)o2)c1`: -2.85%; `COc1ccc(N2C(=O)C(NC(=O)C(C)(C)C)(C(F)(F)F)C3=C2CC(C)(C)CC3=O)cc1` (centres unmarked): -2.21%.

Regarding `O=C(Nc1ccccc1O)c1ccc2c(c1)C(=O)N(Cc1ccco1)C2=O`, the “% Inhibition @ 10 uM” value worked out at 5.31%. Next, `CCOC(=O)NC(Cc1c[nH]c2ccccc12)C(=O)NCCc1ccc(S(N)(=O)=O)cc1` (centres unmarked): -6.5%.

Regarding `COc1ccccc1C1C2=C(O)CCCC2=NC(C)=C1C(=O)OCCc1ccccc1` (centres unmarked), the “% Inhibition @ 10 uM” value is listed as 4.35%.

Take `COc1cccc(C(=O)Nc2nc(C)cc(C)n2)c1OC`: the “% Inhibition @ 10 uM” value came out at 3.32%. On to `Cc1ccc(C(C)C)c(OCc2nc3c4cnn(C)c4ncn3n2)c1`, for which the “% Inhibition @ 10 uM” value is -0.386%. Regarding `CCC(=O)Nc1c(-c2ccccc2)nc2c(C)cccn12`, the “% Inhibition @ 10 uM” value is on record as 1.97%.

These data come from publication PMC6919601, “Identification of Plasmodium dipeptidyl aminopeptidase allosteric inhibitors by high throughput screening” (PLoS ONE, 2019).
